# From publication PMC11090508
# By UniProt entry, the sequences of proteins in these tests, tags left out.
# UniProt P38919: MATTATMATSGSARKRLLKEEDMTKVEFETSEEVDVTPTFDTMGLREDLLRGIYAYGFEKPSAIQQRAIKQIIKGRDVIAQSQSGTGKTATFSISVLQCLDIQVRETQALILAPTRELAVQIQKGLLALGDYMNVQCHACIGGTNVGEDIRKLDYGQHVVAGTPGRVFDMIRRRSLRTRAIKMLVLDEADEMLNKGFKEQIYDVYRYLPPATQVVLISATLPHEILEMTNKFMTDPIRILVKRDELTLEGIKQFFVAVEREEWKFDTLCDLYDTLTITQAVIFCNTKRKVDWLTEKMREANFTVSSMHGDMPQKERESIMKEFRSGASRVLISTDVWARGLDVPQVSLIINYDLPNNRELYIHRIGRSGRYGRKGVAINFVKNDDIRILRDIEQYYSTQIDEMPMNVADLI
# UniProt P05198: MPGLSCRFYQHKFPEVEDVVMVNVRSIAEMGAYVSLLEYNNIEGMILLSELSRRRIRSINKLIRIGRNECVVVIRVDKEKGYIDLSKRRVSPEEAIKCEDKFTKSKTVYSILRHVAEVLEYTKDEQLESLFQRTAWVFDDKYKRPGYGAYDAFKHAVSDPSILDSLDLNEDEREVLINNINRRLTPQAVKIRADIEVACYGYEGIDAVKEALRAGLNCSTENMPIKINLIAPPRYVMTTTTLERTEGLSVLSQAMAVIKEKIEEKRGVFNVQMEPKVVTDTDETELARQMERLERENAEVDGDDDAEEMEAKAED
# UniProt Q14240: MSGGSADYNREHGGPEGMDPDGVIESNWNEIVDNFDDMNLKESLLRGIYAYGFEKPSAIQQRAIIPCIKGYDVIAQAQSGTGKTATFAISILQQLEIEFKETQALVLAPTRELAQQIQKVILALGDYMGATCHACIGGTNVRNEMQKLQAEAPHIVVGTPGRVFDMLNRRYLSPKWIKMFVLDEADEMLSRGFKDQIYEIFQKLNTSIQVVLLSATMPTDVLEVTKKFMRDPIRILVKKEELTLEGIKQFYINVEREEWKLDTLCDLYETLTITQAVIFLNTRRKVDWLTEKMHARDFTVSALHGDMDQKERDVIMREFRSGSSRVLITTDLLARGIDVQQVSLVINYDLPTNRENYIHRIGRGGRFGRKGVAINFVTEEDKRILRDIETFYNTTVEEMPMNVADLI
# UniProt P06730: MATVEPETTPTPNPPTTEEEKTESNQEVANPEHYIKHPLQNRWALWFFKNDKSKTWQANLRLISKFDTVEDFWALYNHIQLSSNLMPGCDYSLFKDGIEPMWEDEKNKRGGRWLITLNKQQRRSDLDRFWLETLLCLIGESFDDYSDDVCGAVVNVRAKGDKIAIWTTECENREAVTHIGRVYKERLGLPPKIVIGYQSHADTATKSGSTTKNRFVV
# UniProt P60842: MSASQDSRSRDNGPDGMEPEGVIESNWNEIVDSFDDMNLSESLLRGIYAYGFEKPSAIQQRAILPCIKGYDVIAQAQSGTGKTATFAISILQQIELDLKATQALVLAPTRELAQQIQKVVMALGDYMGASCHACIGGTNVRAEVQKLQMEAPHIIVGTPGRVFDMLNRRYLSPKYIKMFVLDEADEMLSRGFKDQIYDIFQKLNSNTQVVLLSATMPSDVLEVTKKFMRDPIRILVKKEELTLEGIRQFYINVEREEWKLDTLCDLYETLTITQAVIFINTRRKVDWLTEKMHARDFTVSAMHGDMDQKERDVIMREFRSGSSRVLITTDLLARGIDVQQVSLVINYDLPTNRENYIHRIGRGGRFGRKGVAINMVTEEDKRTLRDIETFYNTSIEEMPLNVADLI
# UniProt P23443: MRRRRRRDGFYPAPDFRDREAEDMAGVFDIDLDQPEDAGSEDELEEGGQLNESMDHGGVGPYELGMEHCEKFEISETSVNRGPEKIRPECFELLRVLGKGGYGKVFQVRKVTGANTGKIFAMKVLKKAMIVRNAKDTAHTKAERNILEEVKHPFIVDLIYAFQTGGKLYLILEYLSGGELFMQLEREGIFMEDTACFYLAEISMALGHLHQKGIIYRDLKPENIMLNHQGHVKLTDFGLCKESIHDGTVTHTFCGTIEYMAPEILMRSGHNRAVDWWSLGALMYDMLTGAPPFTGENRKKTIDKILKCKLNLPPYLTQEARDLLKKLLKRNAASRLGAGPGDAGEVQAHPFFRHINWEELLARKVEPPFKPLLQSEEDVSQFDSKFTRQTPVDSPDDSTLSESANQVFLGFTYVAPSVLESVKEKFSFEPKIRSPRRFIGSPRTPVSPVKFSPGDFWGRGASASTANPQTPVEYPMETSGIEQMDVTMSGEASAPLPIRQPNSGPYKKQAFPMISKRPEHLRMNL
# No constants are given. Whether binding was seen depends on the method and setting. In cells and extracts the contact can be indirect. Some entries that bind do so weakly or less than the wild type. For some of these results: Sequences can lack the tags named with a protein.
# Experiments:
# [1] = molecular target: T1, IBTK, endogenous (human (endogenous in 293T)) (UniProt Q9P2D0); assay: co-IP; endogenous co-IP with anti-eIF4A1, eIF4A2, eIF4A3 or IBTK antibody from whole cell lysates of 293T cells, Western blot (Figures 1H-K, 5E)
# T1 sequence: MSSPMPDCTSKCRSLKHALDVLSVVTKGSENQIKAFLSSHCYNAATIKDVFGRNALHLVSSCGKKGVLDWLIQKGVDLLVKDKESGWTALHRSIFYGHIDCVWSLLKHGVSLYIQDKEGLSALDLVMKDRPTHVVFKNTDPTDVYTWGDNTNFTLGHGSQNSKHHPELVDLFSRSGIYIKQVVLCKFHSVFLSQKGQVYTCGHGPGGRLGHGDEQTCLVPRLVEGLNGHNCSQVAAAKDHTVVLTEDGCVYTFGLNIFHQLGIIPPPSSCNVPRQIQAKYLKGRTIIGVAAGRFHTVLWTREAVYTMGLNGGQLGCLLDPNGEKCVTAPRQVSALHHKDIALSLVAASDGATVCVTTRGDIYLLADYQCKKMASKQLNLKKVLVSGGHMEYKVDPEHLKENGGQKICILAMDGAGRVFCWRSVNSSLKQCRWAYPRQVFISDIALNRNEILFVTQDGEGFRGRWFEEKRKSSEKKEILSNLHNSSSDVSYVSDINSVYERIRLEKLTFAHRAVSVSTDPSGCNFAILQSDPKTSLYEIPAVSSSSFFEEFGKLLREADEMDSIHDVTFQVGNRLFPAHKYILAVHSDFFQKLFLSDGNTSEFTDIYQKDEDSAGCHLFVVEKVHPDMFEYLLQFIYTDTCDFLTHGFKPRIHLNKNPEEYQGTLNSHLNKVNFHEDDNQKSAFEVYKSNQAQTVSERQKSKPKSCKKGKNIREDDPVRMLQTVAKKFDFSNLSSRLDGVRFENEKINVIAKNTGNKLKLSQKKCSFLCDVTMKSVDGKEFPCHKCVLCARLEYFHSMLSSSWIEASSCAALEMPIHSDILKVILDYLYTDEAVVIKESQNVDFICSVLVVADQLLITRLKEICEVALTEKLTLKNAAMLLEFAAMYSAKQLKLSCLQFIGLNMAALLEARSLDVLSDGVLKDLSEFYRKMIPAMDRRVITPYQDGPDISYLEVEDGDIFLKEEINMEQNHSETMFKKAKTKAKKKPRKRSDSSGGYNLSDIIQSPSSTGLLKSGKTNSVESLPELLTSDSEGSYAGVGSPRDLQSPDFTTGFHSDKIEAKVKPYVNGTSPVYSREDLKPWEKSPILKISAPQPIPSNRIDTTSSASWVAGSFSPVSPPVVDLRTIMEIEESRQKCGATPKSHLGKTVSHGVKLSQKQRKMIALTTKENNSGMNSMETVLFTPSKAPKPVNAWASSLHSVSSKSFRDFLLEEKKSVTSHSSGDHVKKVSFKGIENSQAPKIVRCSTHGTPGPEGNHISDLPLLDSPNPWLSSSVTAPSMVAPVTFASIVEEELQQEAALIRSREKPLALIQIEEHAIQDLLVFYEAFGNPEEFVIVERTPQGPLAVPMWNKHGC
# [2] = molecular target: T2, FLAG-BirA*-IBTK (inhibitor of Bruton's tyrosine kinase) (UniProt Q9P2D0); assay: co-IP; FLAG-BirA*-IBTK Tet-on Flp-In T-REx 293 cells with/without DOX (10 ng/ml, 12 hr); anti-FLAG co-IP, Western blot of endogenous proteins (Figure 1G)
# T2 sequence: T1 sequence
# [3] = molecular target: T3, IBTK, ectopically expressed in 293T cells (UniProt Q9P2D0); assay: co-IP; anti-FLAG co-IP from whole cell lysates of 293T cells transfected with the indicated plasmids, Western blot (Figures 1D-F, 5B-D)
# T3 sequence: T1 sequence
Substance,binding [1],binding [2],binding [3]
"eIF4A3, endogenous (from UniProt P38919 1-411)",binds,binds,–
"eIF4A3, ectopically expressed in 293T cells (from UniProt P38919 1-411)",–,–,binds
"eIF2α, endogenous (from UniProt P05198 1-315)",–,binds,–
"eIF4A2, ectopically expressed in 293T cells (from UniProt Q14240 1-407)",–,–,binds
"eIF4E, endogenous (from UniProt P06730 1-217)",–,no binding,–
"eIF4A1, endogenous (from UniProt P60842 1-406)",binds,binds,–
"eIF4A1, ectopically expressed in 293T cells (from UniProt P60842 1-406)",–,–,binds

# Second part, the substance after the results:
binding [1],binding [2],binding [3],Substance
binds,binds,–,"eIF4A2, endogenous (from UniProt Q14240 1-407)"
binds,–,–,"S6K1, endogenous (from UniProt P23443 1-525) (enzyme)"
–,–,binds,"S6K1, ectopically expressed in 293T cells (from UniProt P23443 1-525) (enzyme)"
